System: MLKL phosphorylation, HT29-L23 human colorectal adenocarcinoma cells
Test: cells
Conditions: read-out: pMLKL HCS Cell Assay (IC50, uM)

First: COc1ncc(-c2cc(C(F)(F)F)c3c(N)ncnn23)cc1C(=O)NCCC(O)c1ccc(F)c(F)c1 (stereo not drawn) [Example 134, 5-[4-amino-5-(trifluoromethyl)pyrrolo[2,1-f][1,2,4]triazin-7-yl]-N-[3-(3,4-difluorophenyl)-3-hydroxypropyl]-2-methoxypyridine-3-carboxamide]
Second: Cc1ncc(-c2cc(C(F)(F)F)c3c(N)ncnn23)cc1C(=O)NCC[C@@H](O)c1ccc(Cl)cc1 [Example 165, 5-[4-amino-5-(trifluoromethyl)pyrrolo[2,1-f][1,2,4]triazin-7-yl]-N-[(3R)-3-(4-chlorophenyl)-3-hydroxypropyl]-2-methylpyridine-3-carboxamide]
The IC50 of the first is 14-fold higher: 0.015 µM for the first, 0.0011 µM for the second. The second is the more potent here.

Going from COc1ncc(-c2cc(C(F)(F)F)c3c(N)ncnn23)cc1C(=O)NC1CC(=O)N(Cc2ccccc2)C1 (stereo not drawn) [Example 137, 5-[4-amino-5-(trifluoromethyl)pyrrolo[2,1-f][1,2,4]triazin-7-yl]-N-(1-benzyl-5-oxopyrrolidin-3-yl)-2-methoxypyridine-3-carboxamide] to COc1ncc(-c2cc(C(F)(F)F)c3c(N)ncnn23)cc1C(=O)N1CCOC(Cc2ccccc2)C1 (stereo not drawn) [Example 139, 7-[5-(2-benzylmorpholine-4-carbonyl)-6-methoxypyridin-3-yl]-5-(trifluoromethyl)pyrrolo[2,1-f][1,2,4]triazin-4-amine], the IC50 falls from 0.453 µM to 0.035 µM (13-fold). The second is the more potent here.

Compared with COc1ncc(-c2cc(C(F)(F)F)c3c(N)ncnn23)cc1C(=O)NCCN(C)c1ccccc1 [Example 143, 5-[4-amino-5-(trifluoromethyl)pyrrolo[2,1-f][1,2,4]triazin-7-yl]-2-methoxy-N-{2-[methyl(phenyl)amino]ethyl}pyridine-3-carboxamide], Cc1ncc(-c2cc(C(F)(F)F)c3c(N)ncnn23)cc1C(=O)NCCC(C)c1ccccc1 (stereo not drawn) [Example 171, 5-[4-amino-5-(trifluoromethyl)pyrrolo[2,1-f][1,2,4]triazin-7-yl]-2-methyl-N-(3-phenylbutyl)pyridine-3-carboxamide] is 100-fold lower in IC50: 0.311 µM for the first, 0.003 µM for the second.

COc1ncc(-c2cc(C(F)(F)F)c3c(N)ncnn23)cc1C(=O)Nc1cnn(C(C)(C)C)c1 [Example 144, 5-[4-amino-5-(trifluoromethyl)pyrrolo[2,1-f][1,2,4]triazin-7-yl]-N-(1-tert-butyl-1H-pyrazol-4-yl)-2-methoxypyridine-3-carboxamide] and COc1ncc(-c2cc(C(F)(F)F)c3c(N)ncnn23)cc1C(=O)NCCC(C)(O)c1ccc(Cl)cc1 (stereo not drawn) [Example 145, 5-[4-amino-5-(trifluoromethyl)pyrrolo[2,1-f][1,2,4]triazin-7-yl]-N-[3-(4-chlorophenyl)-3-hydroxybutyl]-2-methoxypyridine-3-carboxamide] are within 1.5-fold of each other in IC50: 0.162 µM for the first, 0.153 µM for the second.

Compared with COc1ncc(-c2cc(C(F)(F)F)c3c(N)ncnn23)cc1C(=O)NCCC(O)(c1ccc(Cl)cc1)C(C)C (stereo not drawn) [Example 146, 5-[4-amino-5-(trifluoromethyl)pyrrolo[2,1-f][1,2,4]triazin-7-yl]-N-[3-(4-chlorophenyl)-3-hydroxy-4-methylpentyl]-2-methoxypyridine-3-carboxamide], CCC(O)(CCNC(=O)c1cc(-c2cc(C(F)(F)F)c3c(N)ncnn23)cnc1OC)c1ccc(Cl)cc1 (stereo not drawn) [Example 147, 5-[4-amino-5-(trifluoromethyl)pyrrolo[2,1-f][1,2,4]triazin-7-yl]-N-[3-(4-chlorophenyl)-3-hydroxypentyl]-2-methoxypyridine-3-carboxamide] is 2.1-fold lower in IC50: 0.419 µM for the first, 0.201 µM for the second.

COc1ncc(-c2cc(C(F)(F)F)c3c(N)ncnn23)cc1C(=O)NCCC(=O)c1ccc(Cl)cc1 [Example 148, 5-[4-amino-5-(trifluoromethyl)pyrrolo[2,1-f][1,2,4]triazin-7-yl]-N-[3-(4-chlorophenyl)-3-oxopropyl]-2-methoxypyridine-3-carboxamide] and COc1ncc(-c2cc(C(F)(F)F)c3c(N)ncnn23)cc1C(=O)NCCC(=O)c1ccc(F)cc1 [Example 149, 5-[4-amino-5-(trifluoromethyl)pyrrolo[2,1-f][1,2,4]triazin-7-yl]-N-[3-(4-fluorophenyl)-3-oxopropyl]-2-methoxypyridine-3-carboxamide] are within 1.5-fold of each other in IC50: 0.024 µM for the first, 0.026 µM for the second.

Going from COc1ncc(-c2cc(C(F)(F)F)c3c(N)ncnn23)cc1C(=O)N1CCCN(Cc2ccccc2)C1 [Example 150, 7-[5-(3-benzyl-1,3-diazinane-1-carbonyl)-6-methoxypyridin-3-yl]-5-(trifluoromethyl)pyrrolo[2,1-f][1,2,4]triazin-4-amine] to Cc1ncc(-c2cc(C(F)(F)F)c3c(N)ncnn23)cc1C(=O)Nc1cnn(Cc2ccccc2)c1 [Example 166, 5-[4-amino-5-(trifluoromethyl)pyrrolo[2,1-f][1,2,4]triazin-7-yl]-N-(1-benzyl-1H-pyrazol-4-yl)-2-methylpyridine-3-carboxamide], the IC50 falls from 0.397 µM to 0.00085 µM (470-fold). The second is the more potent here.

Compared with COc1ncc(-c2ccc3c(N)ncnn23)cc1C(=O)NCCC(C)c1ccccc1 (stereo not drawn) [Example 151, 5-{4-aminopyrrolo[2,1-f][1,2,4]triazin-7-yl}-2-methoxy-N-(3-phenylbutyl)pyridine-3-carboxamide], COc1ncc(-c2ccc3c(N)ncnn23)cc1C(=O)NCCC(O)c1ccccc1 (stereo not drawn) [Example 152, 5-{4-aminopyrrolo[2,1-f][1,2,4]triazin-7-yl}-N-(3-hydroxy-3-phenylpropyl)-2-methoxypyridine-3-carboxamide] is 11-fold higher in IC50: 0.009 µM for the first, 0.1 µM for the second. The first is the more potent here.

First: COc1ncc(-c2ccc3c(N)ncnn23)cc1C(=O)Nc1cnn(Cc2ccccc2)c1 [Example 153, 5-{4-aminopyrrolo[2,1-f][1,2,4]triazin-7-yl}-N-(1-benzyl-1H-pyrazol-4-yl)-2-methoxypyridine-3-carboxamide]
Second: COc1ncc(-c2ccc3c(N)ncnn23)cc1C(=O)N[C@@H]1CN(C(=O)c2ccc(F)cc2)C[C@@H]1F [Example 159, 5-{4-aminopyrrolo[2,1-f][1,2,4]triazin-7-yl}-N-[(3R,4S)-4-fluoro-1-(4-fluorobenzoyl)pyrrolidin-3-yl]-2-methoxypyridine-3-carboxamide]
The IC50 of the first is 4.6-fold lower: 0.014 µM for the first, 0.065 µM for the second.

First: COc1ncc(-c2ccc3c(N)ncnn23)cc1C(=O)N[C@@H]1CN(C(=O)C2CC(F)(F)C2)C[C@@H]1F [Example 154, 5-{4-aminopyrrolo[2,1-f][1,2,4]triazin-7-yl}-N-[(3R,4S)-1-(3,3-difluorocyclobutanecarbonyl)-4-fluoropyrrolidin-3-yl]-2-methoxypyridine-3-carboxamide]
Second: COc1ncc(-c2ccc3c(N)ncnn23)cc1C(=O)N[C@@H]1CN(C(=O)C2CC2(F)F)C[C@@H]1F (stereo partly drawn) [Example 156, 5-{4-aminopyrrolo[2,1-f][1,2,4]triazin-7-yl}-N-[(3R,4S)-1-(2,2-difluorocyclopropanecarbonyl)-4-fluoropyrrolidin-3-yl]-2-methoxypyridine-3-carboxamide]
The IC50 of the first is 1.5-fold lower: 0.066 µM for the first, 0.1 µM for the second.

COc1ncc(-c2ccc3c(N)ncnn23)cc1C(=O)N[C@@H]1CN(C(=O)C2CCOCC2)C[C@@H]1F [Example 155, 5-{4-aminopyrrolo[2,1-f][1,2,4]triazin-7-yl}-N-[(3R,4S)-4-fluoro-1-(oxane-4-carbonyl)pyrrolidin-3-yl]-2-methoxypyridine-3-carboxamide] and COc1ncc(-c2ccc3c(N)ncnn23)cc1C(=O)N[C@@H]1CN(C(=O)C2CCC(F)(F)CC2)C[C@@H]1F [Example 158, 5-{4-aminopyrrolo[2,1-f][1,2,4]triazin-7-yl}-N-[(3R,4S)-1-(4,4-difluorocyclohexanecarbonyl)-4-fluoropyrrolidin-3-yl]-2-methoxypyridine-3-carboxamide] are within 1.5-fold of each other in IC50: 0.367 µM for the first, 0.253 µM for the second.

Going from COc1ncc(-c2ccc3c(N)ncnn23)cc1C(=O)N[C@@H]1CN(C(=O)C2CC(F)C2)C[C@@H]1F (stereo partly drawn) [Example 157, 5-{4-aminopyrrolo[2,1-f][1,2,4]triazin-7-yl}-N-[(3R,4S)-4-fluoro-1-(3-fluorocyclobutanecarbonyl)pyrrolidin-3-yl]-2-methoxypyridine-3-carboxamide] to Cc1ncc(-c2cc(C(F)(F)F)c3c(N)ncnn23)cc1C(=O)N1CCC[C@@H](Cc2ccc(F)cc2)C1 [Example 172, 7-{5-[(3S)-3-[(4-fluorophenyl)methyl]piperidine-1-carbonyl]-6-methylpyridin-3-yl}-5-(trifluoromethyl)pyrrolo[2,1-f][1,2,4]triazin-4-amine], the IC50 falls from 0.156 µM to 0.03 µM (5.2-fold). The second is the more potent here.

Going from COc1ccc(-c2cc(C(F)(F)F)c3c(N)ncnn23)cc1C(=O)NCc1ccccc1Oc1ccccc1 [Example 162, 5-[4-amino-5-(trifluoromethyl)pyrrolo[2,1-f][1,2,4]triazin-7-yl]-2-methoxy-N-[(2-phenoxyphenyl)methyl]benzamide] to COc1ccc(-c2cc(C(F)(F)F)c3c(N)ncnn23)cc1C(=O)NCc1ccccc1OCC1CC1 [Example 163, 5-[4-amino-5-(trifluoromethyl)pyrrolo[2,1-f][1,2,4]triazin-7-yl]-N-{[2-(cyclopropylmethoxy)phenyl]methyl}-2-methoxybenzamide], the IC50 falls from 0.351 µM to 0.17 µM (2.1-fold).

Going from COc1ccc(-c2cc(C(F)(F)F)c3c(N)ncnn23)cc1C(=O)NCc1nccnc1Cl [Example 164, 5-[4-amino-5-(trifluoromethyl)pyrrolo[2,1-f][1,2,4]triazin-7-yl]-N-[(3-chloropyrazin-2-yl)methyl]-2-methoxybenzamide] to Cc1ncc(-c2cc(C(F)(F)F)c3c(N)ncnn23)cc1C(=O)NCC[C@H](O)c1ccc(Cl)cc1 [Example 169, 5-[4-amino-5-(trifluoromethyl)pyrrolo[2,1-f][1,2,4]triazin-7-yl]-N-[(3S)-3-(4-chlorophenyl)-3-hydroxypropyl]-2-methylpyridine-3-carboxamide], the IC50 falls from 0.097 µM to 0.0017 µM (57-fold). The second is the more potent here.

Going from Cc1ncc(-c2cc(C(F)(F)F)c3c(N)ncnn23)cc1C(=O)NCCC(O)c1ccccc1 (stereo not drawn) [Example 167, 5-[4-amino-5-(trifluoromethyl)pyrrolo[2,1-f][1,2,4]triazin-7-yl]-N-(3-hydroxy-3-phenylpropyl)-2-methylpyridine-3-carboxamide] to Cc1ncc(-c2cc(C(F)(F)F)c3c(N)ncnn23)cc1C(=O)NCCC(O)c1ccc(F)cc1 (stereo not drawn) [Example 168, 5-[4-amino-5-(trifluoromethyl)pyrrolo[2,1-f][1,2,4]triazin-7-yl]-N-[3-(4-fluorophenyl)-3-hydroxypropyl]-2-methylpyridine-3-carboxamide], the IC50 falls from 0.0093 µM to 0.0028 µM (3.3-fold). The second is the more potent here.
